Laboratory results: publication PMC4336329 (PLoS ONE, 2015)
Out of some 310,000 compounds screened, about 2,200 (0.71%) showed an effect of 50% or more. The effect is printed as a negative number. The list shows a part of the results.

The compounds below were run against human ether-à-go-go-related gene (hERG) potassium channel (human, UniProt Q12809) (assay: primary screen, population patch clamp on CHO cells stably expressing hERG).
Chain of human ether-à-go-go-related gene (hERG) potassium channel (Q12809 whole entry, looked up): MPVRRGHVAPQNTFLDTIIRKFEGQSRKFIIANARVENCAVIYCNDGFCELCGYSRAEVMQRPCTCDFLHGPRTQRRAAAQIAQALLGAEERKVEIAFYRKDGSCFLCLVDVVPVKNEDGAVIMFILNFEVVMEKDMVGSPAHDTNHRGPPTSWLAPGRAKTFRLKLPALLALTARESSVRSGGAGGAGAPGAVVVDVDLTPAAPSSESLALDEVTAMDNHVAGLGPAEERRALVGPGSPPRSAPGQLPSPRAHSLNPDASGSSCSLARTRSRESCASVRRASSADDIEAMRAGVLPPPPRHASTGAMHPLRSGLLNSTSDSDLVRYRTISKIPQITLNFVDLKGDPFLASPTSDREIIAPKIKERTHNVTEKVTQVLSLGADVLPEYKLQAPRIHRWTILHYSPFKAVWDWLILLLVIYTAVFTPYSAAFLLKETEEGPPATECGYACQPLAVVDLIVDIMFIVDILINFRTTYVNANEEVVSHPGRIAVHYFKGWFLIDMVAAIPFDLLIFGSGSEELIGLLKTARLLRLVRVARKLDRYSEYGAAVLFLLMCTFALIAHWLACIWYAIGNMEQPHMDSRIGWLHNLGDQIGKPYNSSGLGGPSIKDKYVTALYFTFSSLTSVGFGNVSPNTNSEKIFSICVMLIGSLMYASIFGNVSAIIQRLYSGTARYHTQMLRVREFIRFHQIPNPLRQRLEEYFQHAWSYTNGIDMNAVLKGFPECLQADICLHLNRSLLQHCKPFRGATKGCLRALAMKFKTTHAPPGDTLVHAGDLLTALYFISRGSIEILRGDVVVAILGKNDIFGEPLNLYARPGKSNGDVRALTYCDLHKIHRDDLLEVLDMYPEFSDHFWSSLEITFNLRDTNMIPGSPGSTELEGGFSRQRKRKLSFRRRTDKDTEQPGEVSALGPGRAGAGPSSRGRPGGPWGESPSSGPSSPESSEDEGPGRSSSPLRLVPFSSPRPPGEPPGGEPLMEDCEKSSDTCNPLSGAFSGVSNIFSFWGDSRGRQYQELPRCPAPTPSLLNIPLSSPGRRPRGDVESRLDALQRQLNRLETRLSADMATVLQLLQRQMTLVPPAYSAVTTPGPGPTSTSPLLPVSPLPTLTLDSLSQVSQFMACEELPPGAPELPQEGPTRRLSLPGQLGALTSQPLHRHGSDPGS

In order of falling “hERG current change (%, negative = inhibition) at 1uM” value:
1. CCOc1cc(C=C2C(=O)c3ccccc3C2=O)ccc1OCC(=O)Nc1ccc(C)cc1  28.2%
2. COc1cc(NC(=O)c2cc(C)nc3ccccc23)cc(OC)c1OC  23.7%
3. CCc1ccc(-c2nc(CN3CCCC(C(=O)O)C3)c(C)o2)cc1 (stereo not shown)  21.6%
4. CN(CC(O)CN1CCOCC1)S(=O)(=O)[O-].[Na+] (stereo not shown)  20.5%
5. CCOC(=O)C1=C(C)N=c2s/c(=C/c3ccc(OCC(=O)O)cc3)c(=O)n2C1c1cc(OC)c(OC)c(OC)c1 (stereo not shown)  20.2%
6. Nc1nc(Nc2ccccc2F)sc1C(=O)c1ccccc1  17.5%
7. COC(=O)c1cccc(NC(=S)Nc2ccc(Cl)c(Cl)c2)c1  17.5%
8. Cc1ccc(S(=O)(=O)N[C@H](C(=O)N2CCC(C(=O)N[C@@H](CC(=O)O)C(=O)O)CC2)C(C)C)cc1  17.2%
9. COc1ccc(S(=O)(=O)N(C)C)cc1NC(=O)CN1C(=O)NC2(CCCC2)C1=O  16.4%
10. CCOCC(=O)Nc1nnc(COC)s1  16.4%
11. COc1cc(/C=N/NC(=O)c2cc(-c3ccccc3Cl)nc3ccccc23)cc(OC)c1O  15.9%
12. CC1=C(C(=O)Nc2cc(C(=O)N(C)Cc3ccccc3)ccc2C)SCCO1  15.9%
13. N#CCCN/N=C(/Cc1nc2ccccc2[nH]1)c1cccc(Cl)c1  14.7%
14. COc1ccc(C2=NN(S(C)(=O)=O)C(c3cccs3)C2)cc1OC (stereo not shown)  14.6%
15. O=C(NC1CCCC1)C(c1cccnc1)N(C(=O)c1csnn1)C1CCCC1 (stereo not shown)  14.1%
16. C=C(C)c1cccc(C(C)(C)NC(=O)NCCCN2CCCC2=O)c1  13.8%
17. CCS(=O)(=O)N1CCC(C(=O)Oc2ccccc2)CC1  13.5%
18. Br.NC1CCc2cc(O)c(O)cc2C1 (stereo not shown)  11.8%
19. O=[N+]([O-])c1cccnc1N1CCOCC1  11.7%
20. CCNC(=S)N(Cc1ccc(OC)cc1)C1CC(=O)N(c2ccc(OCC)cc2)C1=O (stereo not shown)  11.3%
21. CCC1Sc2ccccc2N(CC(=O)NCCC(C)C)C1=O (stereo not shown)  10.8%
22. CCC(O)(c1ccc(OC)cc1)C(CN1CCOCC1)c1ccccc1.Cl (stereo not shown)  10.1%
23. O=C(Nc1ccc2c(c1)OCCO2)C1CCCC1  9.82%
24. COc1ccc(CCNC(=O)COC(=O)CNS(=O)(=O)c2ccc(SC)c([N+](=O)[O-])c2)cc1  9.76%
25. N#CC12CCCCC1CC1CCCCC1(C#N)N2Cc1ccccn1 (stereo not shown)  9.12%
26. CCOC(=O)c1cc2c(=O)n3cccc(C)c3nc2n(CCOC)c1=NC(C)=O  8.92%
27. CC1S/C(=C(\C#N)C(=O)NCc2ccco2)N(Cc2ccco2)C1=O (stereo not shown)  8.15%
28. CCNc1nc(NC(C)C)nc(N(C#N)CCOc2ccc(Cl)cc2Cl)n1  7.93%
29. Cl.O=C(CSc1ncn[nH]1)Nc1ccc([N+](=O)[O-])cc1Br  6.71%
30. O=[N+]([O-])c1ccc(N2CCCCCC2)c2ncccc12  6.66%
31. O=C(NC1CCN(Cc2ccccc2)CC1)c1ccc2c(c1)[nH]c(=O)n2Cc1ccc(F)cc1  6.14%
32. COc1ccccc1-c1ccc(=O)n(CC(=O)NC2CCc3ccccc32)n1 (stereo not shown)  6.04%
33. O=C(COC(=O)c1cc(S(=O)(=O)N2CCOCC2)ccc1F)NC1CCCCC1  5.92%
34. COc1ccc(C(=O)Nc2n[nH]c(-c3ccncc3)n2)cc1  5.91%
35. O=C(NCC(=O)N1CCN(C(=O)c2ccccc2)CC1)c1ccc(Cl)cc1Cl  5.5%
36. CC1(C)CC(=O)C(N=Nc2cccc(S(=O)(=O)N3CCOCC3)c2)=C(O)C1  4.97%
37. N#Cc1c(-c2ccc([N+](=O)[O-])cc2)nc2n(c1=O)CCS2  4.72%
38. N#Cc1ccc(N2Cc3ccccc3C2=NC(=O)c2cccs2)cc1  4.56%
39. CC(=O)N1CCN(S(=O)(=O)c2ccc(C)cc2)C1C(C)C (stereo not shown)  4.5%
40. Cc1cc(NC(=O)c2cccs2)ncc1NC(=O)c1cccc(F)c1  3.6%
41. Cc1cc(OCC(=O)Nc2ccccc2C(N)=O)c2c(C)cc(=O)oc2c1  2.49%
42. COc1cc(CN(C)CC2CCCN(CCc3ccc(F)cc3)C2)c(Cl)cc1O (stereo not shown)  2.44%
43. CC[n+]1c(/C=C(/C)SC)sc2ccccc21.COS(=O)(=O)[O-]  2.44%
44. O=C1CC(N2CCC(C(=O)N3CCCCC3)CC2)C(=O)N1 (stereo not shown)  1.93%
45. O=C(CNC(=O)c1ccco1)NCC(=O)OCc1c(F)cccc1Cl  1.85%
46. COc1cccc(C(=O)N2CCN(Cc3ccc4c(c3)OCO4)CC2)c1OC  0.476%
47. CSc1ccccc1NC(=O)c1cc(C2CC2)on1  -0.193%
48. CCCC/S(CC1CC1(Cl)Cl)=N\S(=O)(=O)c1ccc(C)cc1 (stereo not shown)  -1.13%
49. CC1CN(CC(O)COC(c2ccc(Cl)cc2)c2ccc(Cl)cc2)CC(C)O1.Cl (stereo not shown)  -2.64%
50. O=S(=O)(Nc1nc2cc3c(cc2nc1Cl)OCCO3)c1ccccc1  -5.58%
51. O=C(NC1CCN(Cc2ccccc2)CC1)c1c(F)cccc1F  -7.73%
52. Cc1cccc(CN2CCN(Cc3cccc(-n4cccn4)c3)CC2CCO)n1 (stereo not shown)  -13.6%
53. CCOC(=O)C1CCN(C(=O)C2CCN(C(=O)c3ccc([N+](=O)[O-])cc3)CC2)CC1  -28.2%
54. COc1cc(CN2CCN(Cc3ccc(C)cc3)CC2)c([N+](=O)[O-])cc1OC.O=C(O)C(=O)O  -73.4%
55. CC(=O)c1ccc(S(=O)(=O)N2CCCC(N(C)CCc3ccccc3)C2)cc1 (stereo not shown)  -78.7%
